Reference: PubChem BioAssay AID463173 (ICCB-Longwood Screening Facility, Harvard Medical School, 2010)
In all, about 52,000 compounds went through this assay and about 1,700 (3.3%) were called active. Rule as the data show it: active = survival mostly below about 52% (no sharp cut-off); inactive = mostly above about 56%. This is one part of the list.

tested on: Wild type; assay: S. aureus survival, RN4220 and DeltatarO strains – OD600, teichoic acid synthesis inhibitors, primary screen (AID 463173); conditions: S. aureus RN4220 wild type/DeltatarO growth, OD600, 18 h, hits give low values, screened at 18.75 µg/mL (by protocol)

Structure (SMILES) | survival
O=C(CN1C(=O)COc2ccc(S(=O)(=O)NC3CCCC3)cc21)Nc1ccc(F)c(Cl)c1 | inactive: 146%
Cc1ccc(-n2ncc(C(=O)NCCN3CCc4ccccc4C3)c2C2CCN(C(=O)OC(C)(C)C)CC2)c(C)c1 | inactive: 75%
Cc1[nH]c2ccccc2c1C1(O)C(=O)N(Cc2ccccc2)c2ccc(Br)cc21 (centres undefined) | active: 14%
CN(c1nnc(NC(=O)Nc2ccc(Br)cc2)s1)C1CCCCC1 | inactive: 62%
COc1ccccc1CNc1ncnc2onc(-c3ccc(Cl)cc3)c12 | inactive: 86%
COc1cccc(NC(=O)CN2C(=O)COc3ccc(S(=O)(=O)N4CCOCC4)cc32)c1 | inactive: 93%
COC(=O)COc1ccc(S(=O)(=O)N2CCN(c3ccccc3F)CC2)cc1Cl | inactive: 115%
Cc1ccc(NC(=O)Nc2csc3c2CCCC3)c(C)c1 | inactive: 83%
CCCS(=O)(=O)NCCc1sc2nc(-c3ccc(Cl)cc3)nn2c1C | inactive: 81%
CCOC(=O)c1c(NC(=O)c2cc(=O)c3c(C)cc(C)cc3o2)sc(C)c1C | inactive: 86%
NC(=O)C1CCN(C(=O)c2ccccc2NC(=O)c2nsc3ccccc23)CC1 | inactive: 134%
COc1ccccc1Nc1nn2c(=O)c3ccc(C(=O)NC4CCCCC4)cc3nc2s1 | inactive: 83%
CCOc1ccc(N(CC(=O)NCc2ccc(C)cc2)S(=O)(=O)c2c(C)[nH]c(=O)[nH]c2=O)cc1 | inactive: 78%
Brc1ccc(-c2csc(-c3nc(-c4ccc(Br)s4)cs3)n2)cc1 | inactive: 78%
CCOC(=O)N1CCc2c(sc(NCc3ccc(N(C)C)cc3)c2C(=O)Nc2ccccc2OCC)C1 | inactive: 70%
O=C(Oc1ccccc1OC(=O)N1CCCCC1)N1CCCCC1 | inactive: 101%
CCN(CC)CCNC(=O)Cn1cnc2sc(C)c(S(=O)(=O)N3CCN(c4ccccc4OC)CC3)c2c1=O | inactive: 72%
CCN1CCN(C(c2cccc(OC)c2)c2c(O)cc(C)n(Cc3ccco3)c2=O)CC1 (centres undefined) | inactive: 128%
CCc1ccc(NC(=O)c2sc3nc(-c4ccccc4)cn3c2C)cc1 | inactive: 153%
CC(NC(=O)c1ccc(Cn2c(SCc3ccccc3)nc3cccnc32)cc1)c1ccccc1 (centres undefined) | inactive: 59%
CC(CCc1ccccc1)NC(=O)Cn1ncc2c3ccccc3n(Cc3cccc(Cl)c3)c2c1=O (centres undefined) | inactive: 87%
COc1ccc(CN(C(=O)c2ccc(OCC(C)C)cc2)C2CCS(=O)(=O)C2)cc1 (centres undefined) | inactive: 105%
O=C(Nc1ccccc1C(F)(F)F)N1Cc2ccccc2Oc2ncccc21 | inactive: 45%

Structure (SMILES) | survival
COc1cccc(C2C=C(c3ccc(C)cc3)Nc3c(C(=O)Nc4ccc(F)cc4)cnn32)c1OC (centres undefined) | active: -3%
CCOc1ccc(NC(=O)CSc2oc(-c3ccco3)nc2S(=O)(=O)c2ccc(Cl)cc2)cc1 | inactive: 136%
CCOC(=O)c1cc(-c2ccc(OC)cc2)n(CCC(=O)NC2CCC(C)CC2)c1C (centres undefined) | inactive: 73%
COc1ccc(NC(=O)CSc2nc(-c3ccccc3)c3ccccc3n2)cc1 | inactive: 97%
CCOc1ccc(-c2n[nH]c3c2C(c2cccs2)N(c2ccc(Br)cc2)C3=O)cc1 (centres undefined) | inactive: 83%
CC(C)C(c1nnnn1Cc1ccccc1)N1CCCc2ccccc21 (centres undefined) | inactive: 122%
CCc1cccc(-n2nnc(-c3nc(-c4ccc5c(c4)OCO5)no3)c2C)c1 | inactive: 82%
Cc1cccc(C(=O)NCc2nnc(SCC(=O)Nc3ccccc3F)n2-c2ccccc2)c1 | inactive: 69%
COc1ccc(N2CCN(C(=O)Nc3ccc(Cl)cc3)CC2)cc1 | inactive: 140%
CC(=O)N1c2ccc(S(=O)(=O)NCC3CCC(C(=O)Nc4cccc(F)c4)CC3)cc2CC1C (centres undefined) | inactive: 104%
COc1ccc(S(=O)(=O)N2CCN(C(=O)c3cc(-c4ccc(Br)cc4)n[nH]3)CC2)cc1OC | inactive: 89%
CCN(CC)C(=O)c1ccc2nc(N)sc2c1 | inactive: 112%
CCN(CC)c1nc(Nc2ccc(OC)cc2)nc(Nc2ccc(OC)cc2)n1 | inactive: 101%
O=C(NC12CC3CC(CC(C3)C1)C2)c1ccco1 | inactive: 111%
CCOc1ccc(NCc2cccn2-c2nnc(N3CCC(C(=O)NCCc4ccc(OCC)c(OCC)c4)CC3)s2)cc1 | inactive: 71%
CC1CN(C(=O)Nc2ccc(C(=O)NCCc3ccc(Cl)cc3)cc2)c2ccccc2S1 (centres undefined) | inactive: 84%
CCC(NC(=O)c1ccccc1)c1ccccc1 (centres undefined) | inactive: 104%
COCCn1c(C)cc(O)c(C(c2ccc(OC)cc2)N2CCCCC2)c1=O (centres undefined) | inactive: 77%
N=c1n(CCN2CCCCC2)c2ccccc2n1CC(O)c1ccc2c(c1)OCO2 (centres undefined) | inactive: 111%
Cc1ccccc1NC(=O)CSCn1nnc2c(=O)[nH]c(Cc3ccc(F)cc3)nc21 | inactive: 82%
Cc1cccc(NC(=O)C(=O)NCC(c2cccnc2)N2CCN(Cc3ccccc3)CC2)c1 (centres undefined) | inactive: 89%
Cn1c(C(=O)NCCc2ccccc2)cc2cc(S(=O)(=O)N3CCCCC3)ccc21 | inactive: 73%
CCCC(=O)Nc1ccc2nc(SCCOc3ccccc3)sc2c1 | inactive: 92%

Structure (SMILES) | survival
CCCN1Cc2cccc(C(=O)Nc3ccccc3F)c2C1=O | inactive: 83%
COc1ccc(Cl)cc1NC(=O)c1c(NCc2cccnc2)sc2c1CCCC2 | inactive: 127%
CC(C)(C)OC(=O)N1CCC(c2c(C(=O)NCCc3ccsc3)cnn2-c2ccc(F)cc2F)CC1 | inactive: 55%
CCOC(=O)c1c(Nc2ccc(OCC)cc2)nnc(-c2ccccc2)c1-c1ccccc1 | active: 2%
COc1ccccc1C(=O)Nc1nnc(S(=O)(=O)N2CCCCC2)s1 | inactive: 74%
CC(C)c1cnc2c(c1SCC(=O)c1ccc(Cl)cc1)c(=O)n(C)c(=O)n2C | inactive: 138%
COc1ccccc1NC(=O)CSc1ncc(CO)n1Cc1ccc(F)cc1 | inactive: 121%
O=C(Cc1ccccc1)NN1C(=O)c2ccccc2C1=O | inactive: 113%
COc1ccc2ncc3c(-c4ccccc4)nn(-c4ccc(C)c(C)c4)c3c2c1 | active: 0%
O=C(NCN1CCCCC1)Nc1cccc(Cl)c1 | inactive: 103%
COc1ccc(CN(Cc2cc3cccc(C)c3n3nnnc23)C(=O)N2CCOCC2)cc1 | inactive: 96%
Cc1cc(-c2ccccc2)nc2cc(C(=O)Nc3ccc(Cl)c(Cl)c3)nn12 | inactive: 70%
Cc1cccc(N2CCN(C(=O)C3CCN(S(=O)(=O)Cc4ccccc4)CC3)CC2)c1C | inactive: 74%
CC1CCN(C(=O)CSc2nc3ccccc3c(=O)[nH]2)CC1 | inactive: 103%
Cc1ccccc1NC(=O)Cn1c(=O)n(Cc2ccco2)c(=O)c2ccc(C(=O)NC3CCCC3)cc21 | inactive: 71%
COc1ccccc1N1CCN(C(=O)C2CCN(S(=O)(=O)c3cccs3)CC2)CC1 | inactive: 93%
COc1ccccc1C(=O)NC1(C(F)(F)F)C(=O)NC(C)=C1C#N (centres undefined) | inactive: 90%
CCOC(=O)c1cnc2cc(Cl)c(OC)cc2c1Nc1ccc(Br)cc1C | inactive: 87%
C#CCOc1c(Br)cc(C2C(C(=O)OC)=C(C)NC3=C2C(=O)c2ccccc23)cc1OCC (centres undefined) | inactive: 76%
COc1cc(OC)c(NC(=O)c2nn(C)c3c2COc2ccccc2-3)cc1Cl | inactive: 111%
Cc1ccccc1NC(=O)Cn1nnc(C(=O)NCc2ccco2)c1N | inactive: 87%
O=C(Nc1ccccc1)c1cc2c(-c3ccccc3)nn(-c3ccccc3)c2s1 | inactive: 60%
C=CCn1c(COc2ccc(OC)cc2)n[nH]c1=S | inactive: 98%

Structure (SMILES) | survival
Cc1ccc(C)c(Cn2c(=O)n(CCc3ccccc3)c(=O)c3c(C)c(C)sc32)c1 | inactive: 93%
COc1ccc(Cn2nc3n(c2=O)-c2ccccc2OC3)cc1 | inactive: 64%
Cc1cccc(C(=O)Nc2nnc(S(=O)(=O)N3CCOCC3)s2)c1 | inactive: 68%
CSc1ccc(CCNS(=O)(=O)c2cc(-c3cc(C)no3)ccc2C)cc1 | inactive: 92%
O=C(CSc1c2c(nc3ccc(Cl)cc13)CCCC2)N1CCN(c2ccc(Cl)cc2)CC1 | inactive: 53%
CCOc1ccc(OC(=O)c2sc3ncn(Cc4cccc(F)c4)c(=O)c3c2C)cc1 | inactive: 55%
CCCCNC(=O)C1(NC(=O)Nc2ccccc2)CCCCC1 | inactive: 107%
COc1ccc(OC)c(NC(=O)C(Cc2ccccc2)NS(=O)(=O)c2ccc3c(c2)CCC(=O)N3)c1 (centres undefined) | inactive: 88%
CCn1cc2nc(SCc3c(F)cccc3Cl)n(CCc3ccccc3)c(=O)c2n1 | inactive: 64%
O=C(COCc1cc(-c2ccc3c(c2)OCO3)on1)Nc1cccc(O)c1 | inactive: 124%
O=C(Nc1ccc2nc[nH]c2c1)C1CCCCC1 | inactive: 87%
CCN(CC)S(=O)(=O)c1ccc2c(c1)N(CC(=O)Nc1cccc(C(C)=O)c1)C(=O)CO2 | inactive: 73%
O=C(Nc1ccc(Br)cc1)Nc1nc2c(s1)CCCCCC2 | inactive: 82%
Cc1cccc(C(=O)n2nc(-c3ccco3)nc2NCc2ccccc2)c1 | inactive: 85%
COc1ccc(Cl)cc1S(=O)(=O)Nc1ccc2c(c1)n(C)c(=O)n2C | inactive: 63%
COc1ccc(NC(=O)C(=O)Nc2ccc3nc4n(c(=O)c3c2)CCCCC4)c(OC)c1 | inactive: 81%
CCC(=O)N1c2ccccc2CC1C(=O)NCCCN1CCN(c2ccc(F)cc2)CC1 (centres undefined) | inactive: 146%
Cc1ccc(-n2ncc3c(NCCc4ccccc4)ncnc32)cc1Cl | inactive: 65%
COc1ccc(CCNC(=O)c2cc(-c3ccc(C)cc3)nc3n[nH]c(-c4ccc(F)cc4)c23)cc1OC | inactive: 136%
O=C(COCc1cc(-c2ccc(F)cc2)on1)Nc1cc(Cl)cc(Cl)c1 | inactive: 148%
